Data on one molecule can be found in patent publication CN109971721A (SHANGHAI CELL THERAPY RES INST; SHANGHAI CELL THERAPY GROUP …, dated 2019).

This experiment concerns the target T1, CD47 on the surface of human cells (αCD47-Meso3CAR T细胞; tumour cell lines Hgc27, SKOV3, ASPC-1) (human, UniProt Q08722).
T1 construct: whole, on cells; also called 细胞表面的CD47; 肿瘤细胞表面CD47
Nature of the experiment: flow cytometry on T cells, masking of staining by FITC mouse anti-human CD47.

UniProt Q08722, sequence (Q08722 19-323): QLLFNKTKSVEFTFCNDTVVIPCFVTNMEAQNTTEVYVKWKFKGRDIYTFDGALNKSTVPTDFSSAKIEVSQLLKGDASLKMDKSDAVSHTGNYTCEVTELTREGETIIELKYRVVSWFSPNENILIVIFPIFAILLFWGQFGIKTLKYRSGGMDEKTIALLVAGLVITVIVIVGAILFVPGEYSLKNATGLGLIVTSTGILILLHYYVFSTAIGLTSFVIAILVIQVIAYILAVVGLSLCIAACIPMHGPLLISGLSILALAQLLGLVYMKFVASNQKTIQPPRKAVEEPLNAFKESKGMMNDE

B1: 突变型αCD47 (CD47抗体 secreted by αCD47-Meso3CAR T细胞; CD47配体 fused to mutant IgG4 Fc) (Fc fusion)
chain: EEELQIIQPDKSVLVAAGETATLRCTITSLFPVGPIQWFRGAGPGRVLIYNQRQGPFPRVTTVSDTTKRNNMDFSIRIGNITPADAGTYYCIKFRKGSPDDVEFKSGAGTELSVRAKP[human IgG4 Fc with S228P L235E N297Q (EU numbers) left out]
notes: Tested as secreted product in the culture supernatant of αCD47-Meso3CAR T cells, not purified; also called pS328-αCD47 product
Regarding B1, the binding result is given as “binds”.
